{"source": "ChEMBL document CHEMBL4888484", "about": "“Replenishing the malaria drug discovery pipeline: Screening and hit evaluation of the MMV Hit Generation Library 1 (HGL1) against asexual blood stage Plasmodium falciparum ,using a nano luciferase reporter read-out” (2022)", "note": "Among all 4,800 compounds or so, about 420 (8.8%) showed an effect of 50% or more. The list shows a part of the results."}
{"system": "Plasmodium falciparum", "assay": "Confirmatory screen in NF54 nanoGlo assay, in single point, at 2uM, 72h", "type": "functional, Erythrocyte", "settings": "timepoint 72 hour", "units": {"% Inhibition": "%"}}
{"smiles": "CC1(C)c2ccccc2CCN1C(=O)CCc1ncc(-c2ccccc2)o1", "% Inhibition": -4}
{"smiles": "COc1cc2c(cc1OC)CN(C(=O)c1cccc(N3C(=O)C(C)(C)CS3(=O)=O)c1)CC2", "% Inhibition": -3}
{"smiles": "O=C(NCCN1CCCCC1)[C@H]1CCCN(c2nc3cccnc3n(Cc3ccccc3)c2=O)C1", "% Inhibition": -9}
{"smiles": "Clc1ccc(COc2ccc(Cl)cc2CNCCCn2ccnc2)c(Cl)c1", "% Inhibition": 95}
{"smiles": "O=C(c1ccc(O)cc1)C1CCN(C[C@H](O)C(F)(F)F)CC1", "% Inhibition": 5}
{"smiles": "Cc1sc2ncnc(N3CCCCC3)c2c1C(=O)NCc1cccc(Cl)c1", "% Inhibition": 0}
{"smiles": "CN=C(NCC(=O)N(C)CC(F)(F)F)NCc1ccc(C)cc1", "% Inhibition": 7}
{"smiles": "COCCCNC(=O)C(=O)Nc1ccnn1C1CCCCC1", "% Inhibition": 3}
{"smiles": "Cc1nn(C)c(Cl)c1CNCc1ccc(N2CCCCC2)nc1", "% Inhibition": -10}
{"smiles": "COc1cccc(CNCCN2CCOCC2)c1OCc1ccc(Cl)cc1Cl", "% Inhibition": 7}
{"smiles": "Cc1ccc(Nc2c(-c3cc4ccccc4cc3O)nc3ncccn23)cc1", "% Inhibition": -2}
{"smiles": "CC(C)CC1NC2(C(=O)N(Cc3ccccc3F)c3ccccc32)C2C(=O)N(c3cccc(Cl)c3)C(=O)C12", "note": "(stereo unspecified)", "% Inhibition": -5}
{"smiles": "Cc1cc(N)cc(Br)c1N", "% Inhibition": 4}
{"smiles": "COc1ccc(C(NC(=O)NCC2CCCO2)C(Cl)(Cl)Cl)cc1F", "note": "(stereo unspecified)", "% Inhibition": -8}
{"smiles": "Cc1nn(C(C)(C)C)c2nc(C3CC3)cc(C(=O)N(C)c3ccccc3)c12", "% Inhibition": 81}
{"smiles": "COc1cccc(C(=O)N2CCN(c3cc(N4CCOCC4)nc(C)n3)CC2)c1", "% Inhibition": -2}
{"smiles": "COc1cccc(-c2cc3c(N4CCC(C(=O)NC[C@H]5CCCO5)CC4)nccn3n2)c1", "% Inhibition": 4}
{"smiles": "C[C@H](Nc1cccc2c1CCO2)c1cccnc1", "% Inhibition": 6}
{"smiles": "O=C(CCOCC(F)(F)F)Nc1ccc2c(c1)C(=O)NC2", "% Inhibition": -6}
{"smiles": "NC(=O)c1c(Cl)cccc1NCc1noc(Cc2ccccc2)n1", "% Inhibition": -4}
{"smiles": "c1ccc(-c2nnc3nc(N4CCOCC4)nc(N4CCOCC4)n23)cc1", "% Inhibition": 7}
{"smiles": "Cc1cc(C)c(S(=O)(=O)Cc2ccccc2)c(O)n1", "% Inhibition": 4}
{"smiles": "COc1ccccc1N(Cc1ccccc1)C1=NC(=[N+](Cc2ccccc2)c2ccccc2OC)c2ccccc21", "% Inhibition": 74}
{"smiles": "Cc1nc2ccccc2cc1OCc1ccc(F)cc1", "% Inhibition": 3}
{"smiles": "N#Cc1cc(O)c(-c2c(O)n[nH]c2-c2ccccc2)cc1C#N", "% Inhibition": 3}
{"smiles": "O=C(NCc1ccccn1)[C@H]1CN(S(=O)(=O)c2cccnc2)CC12CCCCC2", "% Inhibition": 10}
{"smiles": "COc1ccccc1NC(=O)c1cnn2c3c(cnc12)CCCCC3", "% Inhibition": -4}
{"smiles": "O=C(Cc1nnc2ccc(C(=O)Nc3ccccc3)cn12)Nc1ccc(F)cc1", "% Inhibition": 0}
{"smiles": "O=C(Nc1nn(Cc2ccccc2)cc1Cl)c1cc(-c2ccc(OC(F)F)cc2)[nH]n1", "% Inhibition": 4}
{"smiles": "CN1CCN(c2c(F)cc3c(=O)c(C(=O)O)cn(-c4ccc(OC5CC6CCC5(C)C6(C)C)c(F)c4)c3c2F)CC1", "note": "(stereo unspecified)", "% Inhibition": 2}
{"smiles": "CCN1C(=O)C(=O)N(CN2CCc3ccccc3C2)C1=O", "% Inhibition": -4}
{"smiles": "Cc1cc(CN2C(=O)N[C@@]3(CCCCc4ccccc43)C2=O)no1", "% Inhibition": -6}
{"smiles": "COC(=O)[C@H](NC(=O)CN1CCOc2ccc(Cl)cc21)c1ccc(O)cc1", "% Inhibition": -4}
{"smiles": "Cc1cc(C)cc(CON=C(N)CCO)c1", "% Inhibition": -20}
{"smiles": "C[C@@H](CCNS(=O)(=O)c1c(Cl)cc(F)cc1Br)CC(=O)O", "% Inhibition": 10}
{"smiles": "COC[C@@H]1CCCN1c1ccc2c(c1)CNCC(=O)N1CC[C@@H](CC(=O)NCCN3CCOCC3)[C@@H](/C=C/CO2)C1", "% Inhibition": -13}
{"smiles": "CCOc1cc(CNCCOC)ccc1O", "% Inhibition": 0}
{"smiles": "O=C(Nc1ccc(N2CCOCC2)c(F)c1)OCc1ccccc1", "% Inhibition": -8}
{"smiles": "CCc1cccc(NC(=O)Cn2ccc3ccc(-c4nnc(C)o4)cc32)c1", "% Inhibition": 81}
{"smiles": "CCOCCC1(CNC(=O)c2cc(C)n[nH]2)CCC1", "% Inhibition": -1}
{"smiles": "Cc1cc(-c2cc(O)cc(CC[C@H]3CCCCN3)c2)ccn1", "% Inhibition": 79}
{"smiles": "COc1ccc([C@@H]2COc3ccccc3C(=O)N2)cc1", "% Inhibition": 0}
{"smiles": "COC(=O)[C@H](C#N)c1ccc(C#N)cn1", "% Inhibition": 5}
{"smiles": "COc1cccc(NC(=O)[C@H](Cc2ccccc2)NC(=O)c2cccnc2)c1", "% Inhibition": -13}
{"smiles": "O=C(Nc1cccnc1)c1ccc(-c2ccc(Cl)c(Cl)c2)o1", "% Inhibition": 91}
{"smiles": "Cn1nncc1C(=O)Nc1ccc(Br)c(C(F)(F)F)c1", "% Inhibition": -1}
{"smiles": "CN(C(=O)c1ccc(F)cc1)[C@H]1CCOC1", "% Inhibition": -15}
{"smiles": "CC(C)CCC(=O)NCC(=O)Nc1ccc(C#N)cc1", "% Inhibition": -9}
{"smiles": "CCOc1ccc(N(Cc2ccccc2F)S(=O)(=O)c2ccc3nnc(C)n3c2)cc1", "% Inhibition": -12}
{"smiles": "Cc1ccc2c(c1)CCCN2S(=O)(=O)c1ccc2ccccc2c1", "% Inhibition": -14}
{"smiles": "O=C(CO[C@H]1CCCc2c[nH]nc21)NC(C1CC1)C1CC1", "% Inhibition": -5}
{"smiles": "C[C@H](NC(c1ccccc1)c1ccccc1)c1nnc(-c2cccs2)o1", "% Inhibition": 2}
{"smiles": "Cc1nn(C)c(Cl)c1CNC[C@@H](c1ccsc1)N(C)C", "% Inhibition": 7}
{"smiles": "COc1ccc(-n2nc(C)c3c2NC(=O)C[C@@H]3c2ccc3c(c2)OCO3)cc1", "% Inhibition": -5}
{"smiles": "Cc1noc(NCc2cc(C)oc2C)n1", "% Inhibition": -7}
{"smiles": "Cc1ccc(-n2nc(-c3ccccc3)c3cnc4cc(F)ccc4c32)cc1C", "% Inhibition": -7}
{"smiles": "CCN1c2cc(C(=O)NCc3ccncc3)ccc2C(=O)N2CCCC[C@H]21", "% Inhibition": -2}
{"smiles": "CCc1nnc(NC(=O)NCc2c[nH]nn2)s1", "% Inhibition": -3}
{"smiles": "COCCN(Cc1c(-c2ccccc2)noc1N1CCN(C)CC1)C(=O)c1ccc(C)cc1", "% Inhibition": 6}
{"smiles": "COc1ccc(-c2nc3nnnn3cc2C)cc1OC", "% Inhibition": -2}
{"smiles": "Cc1cnc(C2CC2)n1CCNC(=O)C1(C)CCCCC1", "% Inhibition": -3}
{"smiles": "CCn1ncc(C(=O)n2nc(C)cc2C)c1C", "% Inhibition": 7}
{"smiles": "N#Cc1c(NC(=O)CN2CCC[C@@H]2CO)sc2c1CCCCC2", "% Inhibition": 1}
{"smiles": "Cc1ccc(Cn2c(=O)c(C(=O)NCc3ccc4c(c3)OCO4)nn(-c3ccc(C(C)C)cc3)c2=O)cc1", "% Inhibition": 64}
{"smiles": "COc1ccc(C(=O)NCN2CCN(c3ccc(F)cc3)CC2)cc1OC", "% Inhibition": -14}
{"smiles": "Cc1cc(CN(C)c2cc(C3CC3)nc(N(C)Cc3cc(C)on3)n2)no1", "% Inhibition": -13}
{"smiles": "N#C[C@@H](C(=O)NCc1cccnc1)c1nc(-c2ccccc2)cs1", "% Inhibition": -1}
{"smiles": "COC(=O)C12CCC(C(=O)NC[C@H]3CCCOC3)(CC1)CC2", "% Inhibition": 3}
{"smiles": "Cn1nccc1C(=O)N(C1CCCCC1)C1CCCCC1", "% Inhibition": -4}
{"smiles": "CCN(CC)C(=O)c1cc(C)n(-c2ccc3c(c2)OCCO3)c1C", "% Inhibition": -7}
{"smiles": "N=C(N)NCc1ccc(COCc2ccccc2)cc1", "% Inhibition": 17}
{"smiles": "O=C(CN1CCC2(CC1)NC(c1ccccn1)=NO2)N1CCN(c2ccc(F)cc2)CC1", "% Inhibition": -2}
{"smiles": "O=C1CC(c2ccccc2)N2N=C(N3C(=O)C4CC=CCC4C3=O)NC2=N1", "note": "(stereo unspecified)", "% Inhibition": -7}
{"smiles": "CN(CCOc1ccc(Cl)cc1Cl)[C@H]1CCS(=O)(=O)C1", "% Inhibition": -7}
{"smiles": "O=C(OC1CCCC1)C1CCCCC1C(=O)N1CCc2ccccc21", "note": "(stereo unspecified)", "% Inhibition": -2}
{"smiles": "COc1ccccc1N1CCN(Cc2nc3ccccc3c(=O)n2-c2ccc(F)cc2)CC1", "% Inhibition": 6}
{"smiles": "Cc1nn(-c2ccccc2)c2nc(Cc3ccccc3)nc(N3CCCN(C(=O)NC4CCCCC4)CC3)c12", "% Inhibition": 30}
{"smiles": "COc1ccc(NC(=O)N2C[C@@H]3C[C@H](NS(=O)(=O)c4ccccc4)[C@H]2C3)c(C)c1", "% Inhibition": -5}
{"smiles": "Cc1ccc2c(c1)N(C(=O)c1c[nH]c(C)cc1=O)CCC2", "% Inhibition": -6}
{"smiles": "O=C(c1ccc(-n2cccn2)cc1)N1CCN(c2ccccc2O)CC1", "% Inhibition": -8}
{"smiles": "CCN1C(=O)c2ccccc2N2C(=O)CC[C@@]12C(=O)Nc1cccc(OC)c1", "% Inhibition": 92}
{"smiles": "C[C@H]1CN(Cc2ccccc2)CC2(CCN(C(=O)N(C)C)CC2)O1", "% Inhibition": 0}
{"smiles": "COc1cccc(Cn2c(=O)c3sccc3n(CC(=O)NCc3ccc(F)cc3F)c2=O)c1", "% Inhibition": 5}
{"smiles": "CCOC(=O)C1=CS/C(=C2/C(=S)C(C)(C)Nc3c(OCC)cccc32)S1", "% Inhibition": -6}
{"smiles": "CN1CCN(C(=O)[C@H](C(=O)c2cccc(Cl)c2)n2ccccc2=O)CC1", "% Inhibition": -16}
{"smiles": "Cc1[nH]nc(C(F)(F)F)c1NS(=O)(=O)c1cccs1", "% Inhibition": 4}
{"smiles": "c1ccc2oc(N3CCCCCCC3)nc2c1", "% Inhibition": -5}
{"smiles": "Cc1cc(=O)n(CC(=O)Nc2cc(C)on2)c(-c2ccc(F)cc2)n1", "% Inhibition": -5}
{"smiles": "COc1cccc(-c2cn(C)c3c(=O)n(CC(=O)Nc4ccc(C(F)(F)F)cc4)cnc23)c1", "% Inhibition": 2}
{"smiles": "COc1ccc(Cl)cc1C(=O)Nc1cc(C2CC2)nn1-c1nc(C)cc(=O)[nH]1", "% Inhibition": 66}
{"smiles": "Cc1c(NC(=O)c2n[nH]cc2Br)c(=O)n(-c2ccccc2)n1C", "% Inhibition": -4}
{"smiles": "Cc1cc(C(=O)N[C@@H](C)C(=O)N2CCCCC2)c2nc3n(c2n1)CCCCC3", "% Inhibition": -2}
{"smiles": "COc1cccc(CN2CCN(c3ccc(F)cc3)C2=O)c1", "% Inhibition": -6}
{"smiles": "Cc1nn2cnnc2c(C)c1C/C=C/c1ccccc1", "% Inhibition": -6}
{"smiles": "CCC(C)(C)c1ccc(OCC(=O)Nc2cccc(NC(=O)C3=NN(c4c(Cl)cc(Cl)cc4Cl)C(=O)C3)c2)c(C(C)(C)CC)c1", "% Inhibition": -8}
{"smiles": "COC(=O)C[C@H](NC(=O)c1ccc2ccccc2n1)C1CC1", "% Inhibition": -10}
{"smiles": "COc1ccc(-c2c(-c3cccc(OC)c3)[nH]c3c2c(=O)[nH]c(=O)n3C)cc1", "% Inhibition": 74}
{"smiles": "Cc1cc(Cl)cc2c1NC(=O)C21NC(CCC(=O)O)[C@H]2C(=O)N(Cc3ccccc3Cl)C(=O)[C@H]21", "note": "(stereo partly specified)", "% Inhibition": -19}
{"smiles": "Cc1n[nH]c([C@H]2CN(C(=O)OCC(F)(F)F)C[C@@H]2C2CC2)n1", "% Inhibition": 1}
{"smiles": "O=C(NC[C@H](O)c1ccc(Cl)s1)c1ccsc1", "% Inhibition": 1}
{"smiles": "OCCN(Cc1cccnc1)c1cc(-c2ccccc2)nc2ncnn12", "% Inhibition": 5}
